Laboratory results: PubChem BioAssay (Tox21)
“And” between values parts separate entries of the source, which are not always exact repeats. Equal values may be shown once. Inconclusive results, whose numbers are uncertain, are shown with a selection of clear calls. Potencies beside an inconclusive call are fits to weak or partial responses and may not hold up. The source made the active and inactive calls. Calls come from the whole dose curve; as a rule, active = well fitted inhibition curve with a large enough effect in the signal ratio in the repeat runs (not every such curve was filed as active); inconclusive = weak or mixed curves, or effect the other way; inactive = no such curve, though single readings can be large or run the other way; the % refers to the signal ratio.

These molecules were tested against Glucocorticoid receptor (Homo sapiens) (UniProt P04150) (assay: qHTS assay to identify small molecule antagonists of the glucocorticoid receptor (GR) signaling pathway (AID 720692)). Conditions: GR-bla HeLa, beta-lactamase FRET ratio, dexamethasone-stimulated, 18 h; activity change, negative = inhibition: at 58.5 µM (top of the series) unless noted.
Summary of the method: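 GR-bla HeLa cells (beta-lactamase reporter under glucocorticoid response element) were pre-plated 4 h at 37 C, treated with compounds plus 5 nM dexamethasone (final) for 18 h, then read by LiveBLAzer B/G FRET fluorescence after 2 h.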
% is set by controls: 0 for no effect and ±100 for the full control effect; potency is the fitted concentration of half-maximal effect; tags give direction and shape of the fitted curve or compound fluorescence and quenching.

Chain of UniProt P04150 (P04150 whole entry, looked up): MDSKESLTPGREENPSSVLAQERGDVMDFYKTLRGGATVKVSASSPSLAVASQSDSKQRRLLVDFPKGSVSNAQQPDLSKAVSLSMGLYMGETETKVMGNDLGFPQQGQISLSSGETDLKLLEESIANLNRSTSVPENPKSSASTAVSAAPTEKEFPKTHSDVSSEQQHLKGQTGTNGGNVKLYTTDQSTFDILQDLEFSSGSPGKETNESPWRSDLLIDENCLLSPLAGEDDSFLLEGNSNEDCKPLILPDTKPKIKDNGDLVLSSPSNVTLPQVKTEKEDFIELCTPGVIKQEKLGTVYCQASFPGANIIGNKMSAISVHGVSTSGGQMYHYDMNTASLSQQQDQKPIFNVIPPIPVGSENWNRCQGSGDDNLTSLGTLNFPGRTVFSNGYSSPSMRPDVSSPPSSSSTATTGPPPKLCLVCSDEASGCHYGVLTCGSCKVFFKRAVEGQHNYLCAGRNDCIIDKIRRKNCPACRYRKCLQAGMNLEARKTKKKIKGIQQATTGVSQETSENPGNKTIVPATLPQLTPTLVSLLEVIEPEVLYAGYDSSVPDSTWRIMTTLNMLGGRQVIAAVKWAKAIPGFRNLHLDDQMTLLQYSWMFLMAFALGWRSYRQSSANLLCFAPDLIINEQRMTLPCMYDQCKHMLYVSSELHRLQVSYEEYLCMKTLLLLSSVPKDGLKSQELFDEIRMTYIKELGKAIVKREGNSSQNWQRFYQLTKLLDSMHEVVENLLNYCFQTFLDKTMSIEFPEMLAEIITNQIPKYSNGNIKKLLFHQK

SMILES | activity change, negative = inhibition | Potency
CCCOC(=O)c1ccccc1 | inactive: -5.2% | –
COc1cc(/C=C/c2ccccc2)oc(=O)c1 | inactive: 21.3% [at 78.9 µM] | –
N=C(N)c1ccc(OCCCCCOc2ccc(C(=N)N)cc2)cc1 | – | inconclusive: 9.52 µM [activator, partial curve] and inconclusive: 2.44 µM [activator, full curve] and inconclusive: 4.17 µM [activator, full curve]
O=C(Oc1ccccc1)c1ccc2ccccc2c1O | inconclusive: -9.37% | –
CCCCC(=O)O[C@]1(C(=O)CO)[C@@H](C)C[C@H]2[C@@H]3CCC4=CC(=O)C=C[C@]4(C)[C@@]3(F)[C@@H](O)C[C@@]21C | – | inconclusive: 2.5 nM [activator, full curve, poor fit]
CCCCC(CC)COC(=O)C(C#N)=C(c1ccccc1)c1ccccc1 (configuration not stated) | inconclusive: -23.8% | –
CC1(C)O[C@@H]2C[C@H]3[C@@H]4C[C@H](F)C5=CC(=O)C=C[C@]5(C)[C@H]4[C@@H](O)C[C@]3(C)[C@]2(C(=O)CO)O1 | – | inconclusive: 20.4 nM [activator, full curve]
OCCN1CCN(CCCN2c3ccccc3C=Cc3ccccc32)CC1 | inconclusive: -36.2% and inconclusive: -4.57% | –
CCCCCCCCCCCCCCCC(=O)OCC | inactive: 3.36% | –
COc1cc(NCc2ccc3nc(N)nc(N)c3c2C)cc(OC)c1OC | inconclusive: 36.7% | –
CCCCCCCCCCC=CC1CC(=O)OC1=O (configuration not stated) | – | active: 15.6 µM and active: 49 µM
CCc1ccc2c(c1)C(=O)c1ccccc1C2=O | inconclusive: -27.8% | –
